# Data published in US20090202520A1 (PROMEDIOR, published 2009).
# T1: soluble recombinant FcγRIIA (H131 variant) (human, UniProt P12318 36-217)
# T1 construct: also called FcγR2A; not shown: C-terminal poly-histidine tail of 6-10 histidines
# T1 sequence: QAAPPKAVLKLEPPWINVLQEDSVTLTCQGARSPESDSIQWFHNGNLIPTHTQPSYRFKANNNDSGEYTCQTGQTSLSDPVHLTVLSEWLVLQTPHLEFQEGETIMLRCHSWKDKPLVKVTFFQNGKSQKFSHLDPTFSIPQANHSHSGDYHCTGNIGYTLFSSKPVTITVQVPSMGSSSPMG
# Molecular target: T1, soluble recombinant FcγRIIA (H131 …)
# Assay: SPR, comparison of SAP and CRP affinities
binder,measurement,value
"serum amyloid P (SAP) (ligand, Pentamer of five non-covalently associated protomers; also called hSAP; human serum amyloid protein P) not shown",fold affinity of SAP over CRP for the same receptor,1000 fold
